Results on 1 compound are retold here after PubChem BioAssay (NCI).

Values joined by “and” are separate entries in the source; they are usually repeats but may differ in a detail not shown here. Identical values can stand only once.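 Step 1: Grow cells in 96-well plates. Step 2: Expose to compound for 48 hours at 5 concentrations. Step 3: Interpolate endpoints linearly; if unreached, use highest concentration. The concentration for 50% growth inhibition is given as GI50. TGI marks complete inhibition of growth.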 Active and inactive are the calls of the source.

In the assay the test system is MDA-MB-468 breast. In words: NCI tumour cell line growth inhibition, 48 h.

Turning to `CNC(=O)c1ccccc1Sc1ccc2c(/C=C/c3ccccn3)n[nH]c2c1`, the GI50 result was “inactive”; the TGI is 88.5 µM and > 10 µM.
